Test results published in publication PMC4336329 (PLoS ONE, 2015).
The campaign covered roughly 310,000 compounds. About 2,200 (0.71%) showed an effect of 50% or more. Effects have a minus sign here. The list shows a part of the results.

What follows are compounds tested against human ether-à-go-go-related gene (hERG) potassium channel (human, UniProt Q12809) (assay: primary screen, population patch clamp on CHO cells stably expressing hERG).
human ether-à-go-go-related gene (hERG) potassium channel, sequence (Q12809 whole entry, looked up): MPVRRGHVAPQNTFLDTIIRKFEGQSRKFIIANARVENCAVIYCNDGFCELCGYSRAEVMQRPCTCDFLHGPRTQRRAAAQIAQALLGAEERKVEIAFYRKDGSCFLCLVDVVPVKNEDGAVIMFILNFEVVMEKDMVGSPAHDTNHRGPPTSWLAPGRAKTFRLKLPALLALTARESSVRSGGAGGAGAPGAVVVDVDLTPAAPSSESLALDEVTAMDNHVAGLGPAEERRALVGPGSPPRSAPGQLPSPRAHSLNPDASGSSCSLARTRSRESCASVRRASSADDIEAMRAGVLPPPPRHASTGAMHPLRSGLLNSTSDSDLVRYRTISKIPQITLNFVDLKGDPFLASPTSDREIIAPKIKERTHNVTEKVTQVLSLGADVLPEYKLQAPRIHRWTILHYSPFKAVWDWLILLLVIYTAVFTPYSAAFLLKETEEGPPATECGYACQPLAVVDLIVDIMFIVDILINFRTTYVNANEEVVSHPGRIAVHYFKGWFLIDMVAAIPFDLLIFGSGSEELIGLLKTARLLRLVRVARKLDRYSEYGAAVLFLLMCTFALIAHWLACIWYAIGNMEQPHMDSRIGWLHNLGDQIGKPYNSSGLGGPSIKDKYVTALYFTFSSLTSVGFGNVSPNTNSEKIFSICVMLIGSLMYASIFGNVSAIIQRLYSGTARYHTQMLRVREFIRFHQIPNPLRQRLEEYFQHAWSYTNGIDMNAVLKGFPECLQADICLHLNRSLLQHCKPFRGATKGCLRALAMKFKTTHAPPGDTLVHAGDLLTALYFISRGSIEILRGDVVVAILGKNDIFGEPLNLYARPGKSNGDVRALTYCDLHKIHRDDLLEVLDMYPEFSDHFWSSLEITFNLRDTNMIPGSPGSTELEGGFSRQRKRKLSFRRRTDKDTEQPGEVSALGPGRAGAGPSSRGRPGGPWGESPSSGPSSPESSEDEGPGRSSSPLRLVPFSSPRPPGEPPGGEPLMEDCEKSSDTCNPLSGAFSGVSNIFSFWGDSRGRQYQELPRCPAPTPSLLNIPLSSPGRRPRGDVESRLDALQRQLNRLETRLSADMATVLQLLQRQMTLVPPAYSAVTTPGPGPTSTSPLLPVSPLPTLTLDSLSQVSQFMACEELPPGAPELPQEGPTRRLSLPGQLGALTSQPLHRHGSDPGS

In order of rising “hERG current change (%, negative = inhibition) at 1uM” value:
1. CC1(C)Cc2c(c(-c3ccccc3)nc3sc4c(=O)[nH]c(=S)[nH]c4c23)CO1  -33%
2. O=C(Cn1c(N2CCN(C/C=C/c3ccccc3)CC2)nc2ccccc21)c1ccccc1  -32%
3. CN(C)CCCN(C(=O)COc1ccccc1)c1nc2cc3c(cc2s1)OCO3.Cl  -28.2%
4. O=C(NC1CC1)c1ccc2c(Cl)c3c(nc2c1)CCCC3  -25.6%
5. CN(C)S(=O)(=O)c1ccc(Cl)c(NC(=O)CSc2nc3ccccc3c(=O)n2CCCN2CCOCC2)c1  -14.7%
6. CC(C)C(=O)N1CCN(c2nc(-c3ccccc3)c3c(c2C#N)CCCC3)CC1  -10.1%
7. CNC(=O)CSc1nc2nn(-c3ccccc3)c(=O)c-2c2n1CCCCC2  -9.14%
8. COc1cccc(CC2(CO)CCCN(Cc3cn[nH]c3-c3cc(C)ccc3C)C2)c1 (centres unmarked)  -7.67%
9. Cc1cc(NCCO)nc(-n2nc(C)cc2C)n1  -7.57%
10. Cc1ccc(OCCNC(=O)c2ccc(NC(=O)CC3SC(N4CCCC4)=NC3=O)cc2)cc1 (centres unmarked)  -6.94%
11. CC(C(=O)NC1CCCCC1)N1CCN(S(=O)(=O)c2cccs2)CC1 (centres unmarked)  -4.21%
12. CC(C)OCCCNC(=S)N1CCC(C(=O)c2ccc(Cl)cc2)CC1  -3.94%
13. O=C1N/C(=N\N=C\c2cccs2)SC1Cc1ccc(Cl)cc1Cl (centres unmarked)  -2.8%
14. Cn1c(OCc2ccc3c(c2)OCO3)nc2c1c(=O)n(Cc1ccc(Cl)c(Cl)c1)c(=O)n2C  -2.01%
15. Br.CCCCCCCCn1ccc(=N)cc1  -1.09%
16. CC1CCCN(C(=O)c2sc3cc([N+](=O)[O-])ccc3c2Cl)C1 (centres unmarked)  -0.9%
17. CCCC(=O)c1cc(F)c(N2CCOCC2)cc1C  -0.637%
18. Cc1ccc(C2C3=C(CC(C)(C)CC3=O)Nc3n[nH]c(C)c32)cc1 (centres unmarked)  -0.291%
19. CC(Sc1nncn1-c1ccccc1)C(=O)Nc1cccc([N+](=O)[O-])c1 (centres unmarked)  1.72%
20. COc1ccc(OC)c(/C=C2\SC(N3CCCCC3)=NC2=O)c1  2.01%
21. CCCn1c(SCC(=O)Nc2ccc(OC)cc2[N+](=O)[O-])n[nH]c1=O  2.55%
22. COc1ccc(CNC(=O)C2(CC3CC(c4ccccc4)=NO3)CCN(C(=O)OC(C)(C)C)CC2)cc1 (centres unmarked)  2.59%
23. CCC(C)n1ncn(-c2ccc(N3CCN(c4ccc(O)cc4)CC3)cc2)c1=O (centres unmarked)  3.22%
24. CC(C)(C)NC(=O)COc1ccc(-c2ccccc2)cc1  3.29%
25. COc1ccc(C2C(C#N)=C(N)Oc3c2ccc2cccnc32)cc1OC (centres unmarked)  3.43%
26. COC(=O)c1nn(-c2ccccc2)c(=O)cc1Oc1ccccc1  3.51%
27. Cc1nn2c3c(cnc2c1-c1ccccc1)C(=O)CC(c1ccco1)C3 (centres unmarked)  3.72%
28. COC(=O)c1cc2sc(Cl)cc2n1CC(=O)N1CCCc2ccccc21  3.75%
29. COCCCn1c(C)nnc1SCc1ccc(C(C)(C)C)cc1  3.95%
30. COCCNC(=S)N1CCN(S(=O)(=O)c2ccc(Cl)s2)CC1  4.26%
31. CCC(=O)N1CCc2cc(S(=O)(=O)CCC(=O)Nc3c(C)n(C)n(-c4ccccc4)c3=O)ccc21  4.97%
32. Cc1cc(C)n(C(=O)CNC(=O)C(c2ccccc2)c2ccccc2)n1  5.62%
33. O=C(Oc1ccc(F)cc1)c1ccc2c(=O)n3c(nc2c1)CCC3  5.84%
34. Cn1ccnc1SCc1nc2c(cnn2-c2ccccc2)c(=O)[nH]1  6%
35. Cc1onc(-c2ccccc2)c1C(=O)NCC(O)c1ccccc1 (centres unmarked)  6.14%
36. O=C(Oc1ccccc1C(=O)N1CCOCC1)c1cccc(Br)c1  6.19%
37. O=C(Nc1ccc2ccccc2c1)c1cnccn1  6.42%
38. COC(=O)C1=C(SC)N(c2ccccc2)C(c2ccccc2)CC1=O (centres unmarked)  7.42%
39. COc1ccc(OC)c(NC(=S)N2CCN(C(=O)C3CCCO3)CC2)c1 (centres unmarked)  7.45%
40. CCc1ccc(NC(=O)Cn2nnc(C(=O)NCc3ccc4c(c3)OCO4)c2N)cc1  7.75%
41. CC(C)c1cc(C(=O)Nc2cc(Cl)ccc2O)no1  7.84%
42. CC(=O)Nc1ccc(SCCN2CC[C@@H](C)CCC2=O)cc1  8.01%
43. CCc1cc(Cn2nc(-c3ccccc3)cc2C(=O)O)on1  8.24%
44. C/C(=N\NC(=O)c1ccc2c(c1)OCO2)c1ccc(C(=O)O)s1  8.36%
45. S=c1[nH]nc(COc2ccccc2)n1/N=C/c1cccnc1  8.46%
46. C(=N\Nc1nc(Nc2ccccc2)nc(N2CCCCC2)n1)/c1ccco1  8.56%
47. Cl.NCCc1nnc(SCc2c(Cl)cccc2Cl)o1  8.57%
48. CC(CCc1ccccc1)NS(=O)(=O)c1ccc(Cl)c(C(=O)O)c1 (centres unmarked)  8.64%
49. O=C(O)c1ccc(C2(c3ccc(C(=O)O)cc3)OC(=O)c3ccccc32)cc1  8.81%
50. O=C(NCCCN1CCOCC1)c1ccc(CS(=O)(=O)Cc2ccccc2Cl)o1  9.53%
51. COC(=O)N/N=C(C)/C=C/c1ccccc1  10.2%
52. Nc1nc(-c2ccco2)nn1C(=O)c1ccc(Cl)cc1  10.2%
53. O=C(Nc1ccccc1)c1cccc(S(=O)(=O)NC2CCCC2)c1  10.4%
54. C=C1CCN([C@@H](Cc2ccccc2)C(=O)NC2CCN(Cc3ccccc3)CC2)S(=O)(=O)c2ccccc21  10.4%
55. COc1ccc2cc3cc(C(=O)NCc4ccccn4)oc3nc2c1  10.7%
56. CC(C)(C)NC(=O)COC(=O)CCC(=O)c1cccs1  11%
57. Cc1ccc(S(=O)(=O)Nc2ccccc2CNc2ccccn2)cc1  11.1%
58. CC(C)n1c(SCC(=O)NC2CC2)nnc1-c1ccco1  11.8%
59. CCOC(=O)CNC(=O)CNC(=O)C(Cc1ccc(N(CCCl)CCCl)cc1)NC(C)=O (centres unmarked)  12.3%
60. COc1ccccc1NC(=O)C(C)NC(c1ccccc1)c1ccccc1 (centres unmarked)  12.3%
61. Cc1ccc(CNC(=O)CCc2c(C)nn(-c3ccc(N4CCOCC4)nn3)c2C)cc1  12.5%
62. Nc1n[nH]c2cc(=O)n(-c3ccc(Cl)cc3)nc12  12.8%
63. CC(C)(O)CNC(=O)Nc1ccc(Cl)c(Cl)c1  12.9%
64. CCOc1ccc(Nc2nnc(Cc3ccc(OC)cc3)c(=O)[nH]2)cc1  13.1%
65. Cc1csc(NC(=O)C2CCCN2C(=O)OCC(C)C)n1 (centres unmarked)  13.2%
66. O=C(NCc1cccs1)c1ccc(CS(=O)Cc2ccccc2Cl)o1 (centres unmarked)  13.3%
67. COc1ccc(C(=O)NNC(=O)C2CC=CCC2)cc1 (centres unmarked)  13.4%
68. O=C1c2c(Br)c(Br)c(Br)c(Br)c2C(=O)N1c1ccccn1  13.4%
69. Cc1sc2nc(CSc3cccc(C(F)(F)F)c3)[nH]c(=O)c2c1C  13.4%
70. COC(=O)C1=C(C)N=C2SC(C)C(=O)N2C1c1cccs1 (centres unmarked)  13.4%
71. CN(CCc1ccccc1)c1ccc([N+](=O)[O-])cn1  13.5%
72. O=C(Nc1ncccc1Cl)c1cc2ccccc2o1  14.2%
73. CC(C)(C)c1ccc(OCCC(=O)NC2=NCCS2)cc1  14.3%
74. Cc1[nH]c2ccc(OCc3ccccc3)cc2c1CCN.Cl  14.8%
75. Cc1nn(-c2ccc(F)cc2)c2nc(N)c(C#N)c(-c3cccs3)c12  15.4%
76. c1ccc(-c2noc(C3CCCCC3)n2)nc1  15.6%
77. CCC(C)(C)NC(=O)CN(C(=O)c1ccc(N2CCCC2)nc1)c1ccc(F)cc1  16.1%
78. Cc1ccc(-n2nnnc2SCC(=O)Nc2ccccc2N2CCCCC2)cc1C  16.2%
79. Cc1cc(C)c(NC(=O)CSc2nc3[nH]ncc3c(=O)[nH]2)c(C)c1  16.3%
80. NS(=O)(=O)c1ccc(CCNC(=O)C2CCCN2S(=O)(=O)c2cccc3nsnc23)cc1 (centres unmarked)  16.5%
81. CCN(C(=O)CN1CCCCC1)C1(C)C(=O)c2ccccc2C1=O  16.7%
82. NS(=O)(=O)c1ccc(CNC(=O)COc2ccc3c4c(c(=O)oc3c2)CCCC4)cc1  17.4%
83. COc1cccc([C@@H]2CC=C(C(=O)O)CN2S(=O)(=O)c2ccc(C)cc2)c1  17.7%
84. O=C(O)C1Cc2ccccc2CN1C(=O)COc1ccc(Br)cc1 (centres unmarked)  18.5%
85. O=C(NCc1ccc(C(=O)N2CCC3(CC2)OCCO3)cc1)c1cccc(Br)c1  19.7%
86. O=C(NCCc1ccccc1)c1ccccc1NC(=O)C1CC=CCC1C(=O)O (centres unmarked)  20.9%
87. Cc1c(C(C)(C)O)[nH]c2cc(C(F)(F)F)ccc12  21.4%
88. Cc1ccccc1C(=O)Nc1sc(C)c(C)c1C(=O)c1ccccc1  22.1%
89. NC(=O)NC(=O)COC(=O)CCSc1ccccc1  23.2%
